Experimental data reported in the RNAGym collection of RNA variant scans (doi:10.1073/pnas.2313332121).
Variants at the background level are over-represented here.

B1: TPR 5TU (parent)
chain: GGAUCUUCUCGAUCUAACAAAAAAGACAAAUCUGCCACAAAGCUUGAGAGCAUCUUCGGAUGCAGAGGCGGCAGCCUUCGGUGGCGCGAUAGCGCCAACGUUCUCAACUAUGACACGCAAAACGCGUGCUCCGUUGAAUGGAGUUUAUCAUG

Variants of: B1
Test: polymerase ribozyme fitness, log enrichment relative to wild type (log ratio); higher = more active; in vitro selection for triplet polymerase activity
Procedure, shortened: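 The heterodimeric triplet polymerase ribozyme's subunits were each mutagenized into PCR-built libraries and transcribed. Every library was selected once, in triplicate, by annealing with a biotinylated primer, the partner subunit and triplets, incubating frozen at −7 °C, gel-excising extended constructs, capturing on streptavidin beads and running RT-PCR. Input and output libraries were Illumina-sequenced, with genotypes kept only at ≥10 input reads and ≥1 read per output. Fitness, from inverse-variance-weighted replicate averages, is the base-2 logarithm of genotype enrichment over wild-type enrichment.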

Polymerase ribozyme fitness (log ratio), ≤ -4.2:
GGAUCUUCUCGAUCUAACAAAAAAGACAAAUCUGCCACAAAGCUUGAGAUCAUCUUCGGAUGCAGAGGCGGCUGCCUUCGGUGGCGCGAUAGCUCCAACGUUCUCAACGAUGUCACGCAAAACGCGUGCUCCGUUGAAUGGAGUUUAUCAUG [G50U A73U G94U U109G A113U]
GGAUCUUCUCGAUCUAACAAAAAAGACAAAUCUGCCACAAAGCUUGAGACCAUCUUCGGAUGCAGAGGCGGCAGCCUUCGGUGGCGCGAUAGCGCCAACGUUCUCAACUAUGACACGCAAAACGCGUGCUCCGUUGAAUGGAGUUUACCAUG [G50C U148C]
GGAUCUUCUCGAUCUAACAAAAAAGACAAAUCUGCCACAAAGCUUGAGAUCAUCUUCGGAUGCAGAGGCGGCAGCCUUCGGUGGCGCGAUAGCGCCAACGUUCUCACCUAUGACACGCAAAACGCGUGCUCCGUUGAAUGGAGUUUAUCAUG [G50U A107C]
GGAUCUUCUCGAUCUAACAAAAAAGACAAAUCUGCCACAAAGCUUGAGACCAUCUUCGGAUGCAGAGGCGGCAGCCUUCGGUGGCGCGAUAGCGCCAACGUUCUGAACUAUGACACGCAAAACGCGUGCUCCGUUGAAUGGAGUUAAUCAUG [G50C C105G U146A]
GGAUCUUCUCGAUCUAACAAAAAAGACAAAUCUGCCACAAAGCUUGAGAUCAUCUUCGGAUGCAGAGGCGGCAGCCUUCGGUGGCGGGAUAGCGCUAUCGUUCUCAACUAUGGCACGCAAAACGCGUGCUCCGUUGAAUGGAGUUUAUCAUG [G50U C87G C96U A98U A113G]
GGAUCUUCUCGAUCUAACAAAAAAGACAAAUCUGCCACAAAGCUUGAGAUCAUCUUCGGAUGCAGAGGCGGCAGCCUUCGGUGGCACGAUAGCGCCAACGUUCUCAACUAUGACACGCAAAACGCGUACUACGUUGAAUGGAGUUUAUCAUG [G50U G86A G128A C131A]
GGAUCUUCUCGAUCUAACAAAAAAGACAAAUCUGCCACAAAGCUUGAGAUCAUCUUUGGAUGCAGAGGCGGCAGACGUCGGUGGCGAGAUAGCGCCUACGUUCUCAACUAUGACACGCAAAACGCGUGCUCCGUUGAAUGGAGUUUAUCAUG [G50U C57U C75A U77G C87A A97U]
GGAUCUUCUCGAUCUAACAAAAAAGACAAAUCUGCCACAAAGCUUGAGAUCAUCUUCGGAUGCAGAGGCGGCAGCCUUCGGUGGCGCGAUAGUGCCAACGGUCUCAACUAUGACACGCAAACCGCGUGCUCCGUUGAAUGUAGUUUAUCAGG [G50U C93U U101G A122C G141U U151G]
GGAUCUUCUCGAUCUAACAAAAAAGACAAAUCUGCCACAAAGCUUGAGAUCAUCUUCGGAUGCAGAGGCGGCAGCCUUCGGUGGCGCGAUAGCCCCAACGUUCUCAACUACGACACGCAAAACGCGUGCUCCGUUGAAUGGAGUUUAUCAUG [G50U G94C U111C]
GGAUCUUCUCGAUCUAACAAAAAAGACAAAUCUGCCACAAAGCUUGAGACCAUCUUCGGAUGCAGAGGCGGCAGCCUUCGGUAGCGCGAUAGCGCCAACGUUGUCAACUAUGACACGCUAAACGCGUGCUCCGGAGAAUGGAGUUUAUCAUG [G50C G83A C103G A119U U134G U135A]
GGAUCUUCUCGAUCUAACAAAAAAGACAAAUCUGCCACAAAGCUUGAGACCAUCUUCGUAUGCAGAGGCGGGAGCCUUCGGUGGCGCGAUAGCGCUAACGUUCUCAGCUAUGACACGCAAAACGCGUGCUCCGUUGAAUGGAGUUUAUCAUG [G50C G59U C72G C96U A107G]
GGAUCUUCUCGAUCUAACAAAAAAGACAAAUCUGCCACAAAGCUUGAGACCAUCUUCGGAUGCAGAGGCGGCACCCUUCGGUGGCGCGAUAGCGCCAACGUUCUCAACUAUGACACGCAAAACGCGUGCUCCGUUGAAUGGAGUUUAUCAUG [G50C G74C]
GGAUCUUCUCGAUCUAACAAAAAAGACAAAUCUGCCACAAAGCUUGAGACCAUCUUCGGAUGCAUAGGCGGCAGCCUUCGGUGGCGCCAUAGCGCCAACGUUAUCAACUAUGACACGCAAAACGCGUGCUCCGUUGAAUGGAGUUUAUCAUG [G50C G65U G88C C103A]
GGAUCUUCUCGAUCUAACAAAAAAGACAAAUCUGCCACAAAGCUUGAGACCAUCUUCAGAUGCAGAGGCGGCAGCCUGCGGUGGCGCGAUAGCGCCAACGUUCUCAAAUAUGACACGCAAAACGCGUGCUCCGUUGAAUGGAGUUUAUCAUG [G50C G58A U78G C108A]
GGAUCUUCUCGAUCUAACAAAAAAGACAAAUCUGCCACAAAGCUUGAGACCAUCUUCGGAUGCAAAGGCGGCAGCCUUCGGUGGCGCUAGAGCGCCAACGUUCUCAACUAUGACACGCAAAACGCGUGCUCCGUUGAAUGGAGUUUAUCAUG [G50C G65A G88U U90G]
GGAUCUUCUCGAUCUAACAAAAAAGACAAAUCUGCCACAAAGCUUGAGAUCAUCUUUGGGUGCAGAGGCGGCAGCCUUCGGUGGUGCGUUAGCGCCAACGUUCUCACCUAUGACACGCAAAACGCGUGCUCCGUUGAAUGGAGUUUAUCAUG [G50U C57U A60G C85U A89U A107C]
GGAUCUUCUCGAUCUAACAAAAAAGACAAAUCUGCCACAAAGCUUGAGACCAUCUUCGGAUGCAGAGGCGGCAGCCUUCGGUGGCGCGAUAGCGCCAACGUUCUCAAUUAUGACACGCAAAACGCGUGCUCCGUUGAAUGGAGUUUAUCAUG [G50C C108U]
GGAUCUUCUCGAUCUAACAAAAAAGACAAAUCUGCCACAAAGCUUGAGAUCAUCUUCGGAUGCAGAGGCGGCAGCCUUCGGUGGCGAGAUAGCGCCAAUGUUCUCAACUAUGACACGCAAAACGCGUGCUCCGUUGAAUGGAGAUUAUCAUG [G50U C87A C99U U144A]
GGAUCUUCUCGAUCUAACAAAAAAGACAAAUCUGCCACAAAGCUUGAGACCAUCUUCGGAUGCAGAGACGGCAGCCUUCCGUGGCGCGAUAGGGCAAACGUUCGCAACUAUGACACGCAAAACGCGUGCUCCGUUGAAUUGCGUUUAUCAUG [G50C G68A G80C C93G C96A U104G G140U A142C]
GGAUCUUCUCGAUCUAACAAAAAAGACAAAUCUGCCACAAAGCUUGAGACCAGCUUCGGAUGCAGAGGCGGCAGCCUUCGGUGGCGCGAUAACGCCAACGUUCUCAACUAUGACACGCAAAACGAGUGCUCAGUUGAAUGGAGUUAAUCAUG [G50C U53G G92A C125A C132A U146A]
GGAUCUUCUCGAUCUAACAAAAAAGACAAAUCUGCCACAAAGCUUGAGAUCAUCUUCGAAUGCAGAGGCAGCGGCCUUCGGUGGCGCGAUAGCGCCAACGUUCUCAUCUAUGACACGCAAAACGCGUGCUCCGUUGAAUGGAGUUGAUCAUG [G50U G59A G70A A73G A107U U146G]
GGAUCUUCUCGAUCUAACAAAAAAGACAAAUCUGCCACAAAGCUUGAGAUCCUCUGCGGAUGCAGAGGCGGCAGCCUUCGGUGGCGCGAUAGCGCAAACGUUCUCAACUAUGACACGAAAAACACGUGCUCCGUUGAAGGGAGUUUAUCAUG [G50U A52C U56G C96A C118A G124A U139G]
GGAUCUUCUCGAUCUAACAAAAAAGACAAAUCUGCCACAAAGCUUGAGAUCAUCUUCGGAUGCAGAGGCGGCAGCCUUCGGUCGCGCGAUAGCGCCAACGUUCUCAACUAUGACCCGCUAAACGCAUGCUCCAUUGAAUGGAGUUUAUAAUG [G50U G83C A115C A119U G126A G133A C149A]
GGAUCUUCUCGAUCUAACAAAAAAGACAAAUCUGCCACAAAGCUUGAGACCAAUUUCAGAUGCAGAGGCGGCAGCCUUCGGUGGCGCGAUAGCGCCAACGUUCUCAACUAUGACACGCUAAACGCGUGCUCCUUUGAAUGAAGUUUAUCAUG [G50C U53A C54U G58A A119U G133U G141A]
GGAUCUUCUCGAUCUAACAAAAAAGACAAAUCUGCCACAAAGCUUGAGACCAUCUUCGUAUGCAGAGGCGGCAGCCUUCGGUGGCACGAUAGCGCCAACGUUCUCAACUGUGACACGCAAAACGCGUGCUCCGUUGAAUGGAGUUUAUCAUG [G50C G59U G86A A110G]
GGAUCUUCUCGAUCUAACAAAAAAGACAAAUCUGCCACAAAGCUUGAGACCAUCUUCGGAUGCAGAGGCGGCAGCCUUCGGUAGCGCGAUAGCGCCAACGUUCUCAACUAUGACACGCAAUACGCGUGCUCCGUUGAAUGGAUUUUAUCAUG [G50C G83A A121U G143U]
GGAUCUUCUCGAUCUAACAAAAAAGACAAAUCUGCCACAAAGCUUGAGAUCAUCUUCGGAUGCAGAGGCGGCAGCCUUCGGUGGCGCGAUAGCGCGAGGGUUCUCAACUAUGACACGCAAAACGCGUGCUCCGUUGAAUGGAGUUUAUCAUG [G50U C96G A98G C99G]
GGAUCUUCUCGAUCUAACAAAAAAGACAAAUCUGCCACAAAGCUUGAGACCAUCUUCGGAUGCAUAGGCGGCAGCCUUGGGUGGCGCGAUACCGCCAACGUUCUCAACUAUGACAUGCAAAACGCGUGCUCCGUUGAAUGGAGUUUAUCAUG [G50C G65U C79G G92C C116U]
GGAUCUUCUCGAUCUAACAAAAAAGACAAAUCUGCCACAAAGCUUGAGAUCAUCUUCGGAUGCAGAGGCGGCAGCCUUCGGUGGCGCGAUAGCGCCAAAGUCCUCAACUAUGACACGCAAAACGCGUGCUCCGUUGAAUGGAGUUUAUCAUG [G50U C99A U102C]
GGAUCUUCUCGAUCUAACAAAAAAGACAAAUCUGCCACAAAGCUUGAGACCACCUUCGGAUGCAGACGCGGCAGCCUUCGGUGGCGCGAUAGCGCCAACGUUCUCAACUAUGACACGCAAAACGCGUGCUCCGUUGGAUGGAGUUUAUCAUG [G50C U53C G67C A137G]
GGAUCUUCUCGAUCUAACAAAAAAGACAAAUCUGCCACAAAGCUUGAGACCAUCUACGGAUGCAGAGGCGGCAACCUUCGGUGGCGAUAUAGCGCCAACGUUCUCAACUAUGACAUGCAAAACGCGUGCUCCGUUGAAUGGAGUUUAUCAUG [G50C U56A G74A C87A G88U C116U]
GGAUCUUCUCGAUCUAACAAAAAAGACAAAUCUGCCACAAAGCUUGAGACCAUCUUCGGAUGCAGAGGCGGCAGCCUUCGGUGGCGCGAUAGUGCCCACGUUCUCAACUAUGACACGCAAAACGCGUGCUCCGUUGAAUGGAGGUUAUCAUG [G50C C93U A97C U144G]
GGAUCUUCUCGAUCUAACAAAAAAGACAAAUCUGCCACAAAGCUUGAGAUGAUCUUCGGAUGCAGAGGAGGCAGCCUUCGGUGGCGCGAUAGCGCCAACGUUCUCAACUAUGACACGCAAAAUGCGUGCUCCGUUGGAUGGAGUUUAACAUG [G50U C51G C69A C123U A137G U148A]
GGAUCUUCUCGAUCUAACAAAAAAGACAAAUCUGCCACAAAGCUUGAGACCAUCUUCGGAUGCAGAGGCGGCAGCCUUCCGUGGCGCGAUAGCGCCAACGUUCUCAACUAUGACACGCAAAACGCGUGCUCCGUUGAAUGGAGUUUAUCAUG [G50C G80C]
GGAUCUUCUCGAUCUAACAAAAAAGACAAAUCUGCCACAAAGCUUGAGAGACUCUUCGGAUGCAGAGGCGGCAGCCUUCGGUGGUGCGAUAGCGCCAACGUUCUCAACUAUGACACGCAAAACGCGCGCUCCGUUGAAUGGAGUUUAUCUUG [C51A A52C C85U U127C A150U]
GGAUCUUCUCGAUCUAACAAAAAAGACAAAUCUGCCACAAAGCUUGAGACCAUCUUCGGAUGCAGAGGCGGCAGCCUUCGGUGGCGCGAUAGGGCCAACGUUAUCAACUAUGACACGCAAAACACGUGCUCCGUUGAAUGGAGUUUAUCAUG [G50C C93G C103A G124A]
GGAUCUUCUCGAUCUAACAAAAAAGACAAAUCUGCCACAAAGCUUGAGACCAUCUUCCGAUGCAGAGGCGGCAGCCUUCGGUGGCGCGAUAGCGCCAAGGUUCUCAACUAUGACACGCAAAACGCGUGCUCCGUUGAAUGGAGUUUAUCAUG [G50C G58C C99G]
GGAUCUUCUCGAUCUAACAAAAAAGACAAAUCUGCCACAAAGCUUGAGACCAUCUUCGGAUGCAUUGGCGGAAGCCUUCGGUGGCGCGAUAGCGCCAACGUUCUCAACUAUGACACGUAAAACGCGUGCUCCGUUGAAUGGACUUUCUCAUG [G50C G65U A66U C72A C118U G143C A147C]
